# Screen size: about 310,000 compounds; about 14,000 (4.5%) showed an effect of 50% or more. Effects have a minus sign here. The list shows a part of the results.
# Molecular target: human ether-à-go-go-related gene (hERG) potassium channel (human, UniProt Q12809)
# Assay: primary screen, population patch clamp on CHO cells stably expressing hERG
# 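Note: peak tail current of the secondary pulse compared with the same well before compound.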
# Chain of human ether-à-go-go-related gene (hERG) potassium channel (Q12809 whole entry, looked up): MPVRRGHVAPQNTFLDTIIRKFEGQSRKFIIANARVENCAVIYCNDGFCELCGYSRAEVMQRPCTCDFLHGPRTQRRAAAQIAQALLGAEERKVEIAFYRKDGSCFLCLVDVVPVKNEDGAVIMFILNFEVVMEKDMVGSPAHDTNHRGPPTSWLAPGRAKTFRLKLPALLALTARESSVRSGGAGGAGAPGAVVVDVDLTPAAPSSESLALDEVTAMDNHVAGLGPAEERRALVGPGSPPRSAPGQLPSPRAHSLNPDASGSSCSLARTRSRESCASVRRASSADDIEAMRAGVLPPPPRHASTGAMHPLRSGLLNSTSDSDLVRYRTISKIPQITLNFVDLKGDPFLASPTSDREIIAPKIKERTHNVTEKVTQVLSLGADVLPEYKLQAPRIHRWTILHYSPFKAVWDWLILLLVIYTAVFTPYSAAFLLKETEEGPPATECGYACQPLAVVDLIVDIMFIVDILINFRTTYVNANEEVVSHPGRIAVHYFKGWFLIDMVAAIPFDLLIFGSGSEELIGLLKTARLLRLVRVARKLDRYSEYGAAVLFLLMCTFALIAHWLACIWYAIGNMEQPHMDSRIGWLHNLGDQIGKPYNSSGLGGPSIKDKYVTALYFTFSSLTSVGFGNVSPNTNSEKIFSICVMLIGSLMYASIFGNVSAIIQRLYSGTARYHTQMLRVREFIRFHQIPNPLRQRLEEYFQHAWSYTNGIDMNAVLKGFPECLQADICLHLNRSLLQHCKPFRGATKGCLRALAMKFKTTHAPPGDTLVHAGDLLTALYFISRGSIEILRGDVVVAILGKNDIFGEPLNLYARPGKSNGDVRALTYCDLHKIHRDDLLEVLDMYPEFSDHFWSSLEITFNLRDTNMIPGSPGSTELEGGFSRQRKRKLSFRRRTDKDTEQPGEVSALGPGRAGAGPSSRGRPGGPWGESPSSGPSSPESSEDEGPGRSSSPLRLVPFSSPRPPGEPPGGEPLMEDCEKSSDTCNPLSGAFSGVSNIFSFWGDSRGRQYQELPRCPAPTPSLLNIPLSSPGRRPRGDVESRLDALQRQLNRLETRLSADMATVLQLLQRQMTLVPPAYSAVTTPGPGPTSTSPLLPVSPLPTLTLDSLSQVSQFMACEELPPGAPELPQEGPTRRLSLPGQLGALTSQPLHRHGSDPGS
row,SMILES,"hERG current change (%, negative = inhibition) at 10uM"
1,COc1ccc2nc(NC(=O)c3ccccc3[N+](=O)[O-])sc2c1,-3.81%
2,O=C(c1ccccc1O)N1CCOCC1,3.51%
3,COc1cccc(-n2c(SCC(=O)Nc3ccc4c(c3)CCC4)nc3ccccc3c2=O)c1,10.4%
4,CC(Oc1ccc2ccc(=O)oc2c1)C(=O)NC1CC(C)(C)NC(C)(C)C1 (centres unmarked),18.2%
5,COC(=O)c1ccc(C2/C(=C(\O)c3cccc(OC)c3)C(=O)C(=O)N2CCCN2CCOCC2)cc1 (centres unmarked),16.5%
6,CC(C)(C)c1ccc(S(=O)(=O)CC(O)CSc2nc3c(cc2C#N)CCCC3)cc1 (centres unmarked),-9.25%
7,c1ccc(-n2ncc3c(N4CCCC4)ncnc32)cc1,-8.17%
8,Cc1c(C(=O)N2CCCCC2)c(S(=O)(=O)N2CCN(c3ccc(Cl)cc3)CC2)c(C)n1C,-55.7%
9,CCOC(=O)CSc1c(-c2ccccc2)c2cc(Cl)ccc2[nH]c1=O,1.55%
10,Cc1ccc(N2C(=O)c3ccc(C(=O)N4CCN(c5ccccc5F)CC4)cc3C2=O)cc1,-15.8%
11,COc1ccc2[nH]cc(CCNC(=O)Cc3ccc(Cl)cc3)c2c1,2.05%
12,Cc1sc2nc(Cc3ccccc3)[nH]c(=O)c2c1-c1ccccc1,4.57%
13,COc1ccc(CCNC(=O)Nc2ccc([N+](=O)[O-])cc2)cc1OC,-20.4%
14,Cc1nc2c3cnn(-c4ccc(C)c(C)c4)c3ncn2n1,-7.97%
15,COC(=O)c1ccc(OCC(O)CN2C(=O)c3ccccc3S2(=O)=O)cc1 (centres unmarked),0.999%
16,COCCCNC(=O)CN1C(=O)COc2ccc(S(=O)(=O)N3CCOCC3)cc21,9.09%
17,COc1ccc(S(=O)(=O)N(C)C)cc1NC(=O)CSC(C)C(=O)Nc1cc(C)on1 (centres unmarked),-3.57%
18,CCn1c(CNc2ccc(Cl)cc2)nnc1SCc1ccc(C)cc1,-19.4%
19,Cc1cccc(NC(=S)NNC(=O)c2ccc(O)cc2O)c1C,29.2%
20,CNC(=O)c1ccc(Nc2nnc(-c3ccc(C(N)=O)cc3)c3ccccc23)cc1,16.5%
21,COc1ccc(CN2CNc3c(c(=O)n(C)c(=O)n3C)C2)cc1,8.8%
22,COc1ccc(CC(=O)Nc2ccc(F)c(Cl)c2)cc1S(=O)(=O)N1CCOCC1,-46.1%
23,COc1ccc(C(=O)OCC(=O)NCc2ccco2)cc1OC,14%

# Source: paper PMC4336329 (PLoS ONE, 2015)
